Out of some 390,000 compounds screened, about 17,000 (4.4%) were called active. Inconclusive results, whose numbers are uncertain, are shown with a selection of clear calls. Calls come from the whole dose curve; as a rule, active = well fitted inhibition curve with a large enough effect; inconclusive = small, poorly fitted or top-dose-only effect; inactive = no such curve, though single readings can be large or run the other way. A potency beside an inconclusive call is a rough fit, not a confirmed value.
biological target: Lysine-specific demethylase 4A (Homo sapiens) (UniProt O75164); assay: qHTS Assay for Inhibitors of JMJD2A-Tudor Domain; conditions: AlphaScreen JMJD2A-Tudor / H3K4me3 peptide binding; activity change, negative = inhibition: at 114 µM (top of the series); note: nearly all actives have a fitted effect of over 50% in size
Chain of UniProt O75164 (O75164 whole entry, looked up, the tested form may be a part): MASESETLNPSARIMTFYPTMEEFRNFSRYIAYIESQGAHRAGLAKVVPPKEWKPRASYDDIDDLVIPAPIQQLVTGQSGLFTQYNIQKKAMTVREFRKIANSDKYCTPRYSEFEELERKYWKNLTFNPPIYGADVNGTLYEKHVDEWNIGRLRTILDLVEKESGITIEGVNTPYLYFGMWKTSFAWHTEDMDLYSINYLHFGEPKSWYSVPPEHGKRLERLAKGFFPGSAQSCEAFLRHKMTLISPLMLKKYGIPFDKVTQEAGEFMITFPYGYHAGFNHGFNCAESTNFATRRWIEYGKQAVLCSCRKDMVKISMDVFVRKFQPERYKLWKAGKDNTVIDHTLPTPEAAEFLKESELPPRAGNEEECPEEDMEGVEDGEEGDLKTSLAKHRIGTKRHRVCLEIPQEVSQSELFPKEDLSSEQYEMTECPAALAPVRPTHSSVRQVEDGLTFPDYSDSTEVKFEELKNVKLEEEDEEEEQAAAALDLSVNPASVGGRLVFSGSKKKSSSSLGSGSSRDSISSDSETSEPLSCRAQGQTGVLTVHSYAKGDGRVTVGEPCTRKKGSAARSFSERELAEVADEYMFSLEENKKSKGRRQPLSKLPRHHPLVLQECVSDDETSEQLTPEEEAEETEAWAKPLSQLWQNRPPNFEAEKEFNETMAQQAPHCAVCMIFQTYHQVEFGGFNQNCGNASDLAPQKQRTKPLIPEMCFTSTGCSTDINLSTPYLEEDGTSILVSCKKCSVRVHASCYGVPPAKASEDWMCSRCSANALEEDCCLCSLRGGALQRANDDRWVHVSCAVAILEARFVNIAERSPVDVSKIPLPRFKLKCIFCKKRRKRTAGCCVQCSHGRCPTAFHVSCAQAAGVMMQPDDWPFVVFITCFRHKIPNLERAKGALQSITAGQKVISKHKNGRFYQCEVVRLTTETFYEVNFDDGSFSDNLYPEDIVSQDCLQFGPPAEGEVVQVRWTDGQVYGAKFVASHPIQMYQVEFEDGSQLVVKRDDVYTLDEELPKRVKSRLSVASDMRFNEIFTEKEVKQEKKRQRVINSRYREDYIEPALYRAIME
% is set by controls: 0 for no effect and ±100 for the full control effect; potency is the fitted concentration of half-maximal effect; tags give direction and shape of the fitted curve.

Question: How did the “activity change, negative = inhibition” value turn out when CCc1nnc(NC(=O)CSc2nnc(COc3cccc(C)c3)o2)s1 was run?
Answer: inactive: -3.6%

Question: For CCOc1ccc(S(=O)(=O)NCC(c2ccco2)S(=O)(=O)c2ccc(C)cc2)cc1 (stereo unspecified), which “activity change, negative = inhibition” value is on record?
Answer: inactive: -6.82%

Question: Which Potency does the source give for COc1ccc(Nc2cc(C(=O)NCCCN(C)Cc3ccccc3)c3ccccc3n2)c(OC)c1 here?
Answer: active: 31.6 µM

Question: With COc1ccc([N+](=O)[O-])cc1NC(=O)C(C)OC(=O)/C=C/c1ccco1 (stereo unspecified) as the compound, how does the Potency read?
Answer: inconclusive: 44.7 µM [inhibitor, partial curve]

Question: How did the Potency turn out when COc1cccc(CNC(=O)CCN2C(=O)[C@@H]3Cc4ccccc4CN3C2=O)c1 was run?
Answer: inconclusive: 14.1 µM [inhibitor, full curve, poor fit]

Question: COc1cc(-c2nc3ccccn3c2Nc2ccccc2C)ccc1O was tested. Which Potency did it give?
Answer: inconclusive: 35.5 µM [inhibitor, partial curve]

Question: How did the Potency turn out when CCOC(=O)c1c(CCl)nc2ccccc2c1C was run?
Answer: active: 89.1 µM

Question: COCCCn1c(SCC(=O)NC2CCCC2)nnc1-c1ccccc1 was tested. Which “activity change, negative = inhibition” value did it give?
Answer: inactive: -8.42%

Question: With CC1(C)Cc2[nH]c(=S)c(C#N)cc2CO1 as the compound, how does the Potency read?
Answer: active: 6.31 µM

Question: With Cc1ccc(C(=O)C(C(=O)/C=C/c2ccccc2)=C2SCCCS2)cc1 as the compound, how does the Potency read?
Answer: inconclusive: 3.16 µM [inhibitor, single point]

Question: With CC1=Nc2ccccc2/C1=C/c1sc(=N)n(-c2nccs2)c1O as the compound, how does the Potency read?
Answer: inconclusive: 56.2 µM [inhibitor, partial curve]

Question: With CN1CCCN(C(c2ccccc2)c2ccc(Cl)cc2)CC1 (stereo unspecified) as the compound, how does the Potency read?
Answer: active: 79.4 µM

Question: With COc1ccc(OC)c(C2c3c(-c4ccc(Br)cc4)n[nH]c3C(=O)N2c2ccc(Cl)cc2)c1 (stereo unspecified) as the compound, how does the Potency read?
Answer: inconclusive: 50.1 µM [inhibitor, partial curve]

Question: Which “activity change, negative = inhibition” value does the source give for O=C(Nc1ccccn1)C(=O)Nc1ccccn1 here?
Answer: inactive: -6.67%

Question: How did the Potency turn out when Cc1ccc(NC2c3ncccc3C(=O)N2C2CCCCC2)cc1C (stereo unspecified) was run?
Answer: inconclusive: 56.2 µM [inhibitor, partial curve]

Question: How did the Potency turn out when COc1cc2c(cc1OC)C(c1ccc(SC)cc1)CC(=O)N2 (stereo unspecified) was run?
Answer: inconclusive: 56.2 µM [inhibitor, partial curve]

Question: With CN1CCc2c(sc3c2C(=O)NC(c2ccccn2)N3)C1 (stereo unspecified) as the compound, how does the Potency read?
Answer: active: 20 µM

Question: How did the Potency turn out when OCc1ccccc1OCCCN1CCC(Cc2ccccc2)CC1 was run?
Answer: active: 22.4 µM

Question: CCOc1ccccc1-c1noc(CSc2nnc(-c3ccccc3)n2-c2cccc(C)c2)n1 was tested. Which “activity change, negative = inhibition” value did it give?
Answer: inactive: -15.6%

Question: With O=C(CSc1ccccn1)N/N=C/c1ccccc1[N+](=O)[O-] as the compound, how does the “activity change, negative = inhibition” value read?
Answer: inactive: 18.3%

Question: Which Potency does the source give for COc1cc(N=Nc2ccc3ccccc3c2)ccc1O here?
Answer: active: 39.8 µM

Question: Which “activity change, negative = inhibition” value does the source give for CCOc1ccc(NC(=O)CS(=O)CC(=O)N(CC(=O)NC(C)(C)C)C2CCCC2)cc1 (stereo unspecified) here?
Answer: inactive: -3.45%

Question: How did the Potency turn out when Cn1c(=O)[nH]c(Nc2ccc(F)cc2)c([N+](=O)[O-])c1=O was run?
Answer: inconclusive: 79.4 µM [inhibitor, partial curve]

Question: How did the Potency turn out when COc1ccccc1/C=N/NC(=O)c1cccc2ccccc12 was run?
Answer: inconclusive: 11.2 µM [inhibitor, full curve]

Question: For COc1ccc2ccccc2c1CNC(C)c1ccccc1 (stereo unspecified), which Potency is on record?
Answer: active: 79.4 µM

Question: CC1(C)CC(NC(=O)c2cc(S(=O)(=O)N3CCCCC3)ccc2Cl)CC(C)(C)N1 was tested. Which “activity change, negative = inhibition” value did it give?
Answer: inactive: -9.52%

Question: With COc1c(Br)cc(/C=N/n2c(-c3ccccc3)n[nH]c2=S)c(O)c1Br as the compound, how does the Potency read?
Answer: inconclusive: 22.4 µM [inhibitor, full curve, poor fit]

Question: Which Potency does the source give for COc1cccc(/C=C2\SC(=S)N(N3CCOCC3)C2=O)c1OC here?
Answer: inconclusive: 44.7 µM [inhibitor, single point]

Question: How did the “activity change, negative = inhibition” value turn out when COc1ccccc1/C=N/NC(=O)c1ccc(C)nc1 was run?
Answer: inactive: -17%

Question: How did the Potency turn out when Cc1nc(N2CCN(c3ccccc3O)CC2)c2c(-c3ccccc3)csc2n1 was run?
Answer: inconclusive: 79.4 µM [inhibitor, partial curve]

Question: CC1=C(C#N)C(c2ccoc2)C(C(=O)OCc2ccccc2)=C(N)S1 (stereo unspecified) was tested. Which Potency did it give?
Answer: inconclusive: 79.4 µM [inhibitor, single point]

Question: Which Potency does the source give for CCOC(=O)c1nc(NCc2ccccc2)sc1C here?
Answer: active: 79.4 µM

Question: For Cc1cc(C)n2nc(CNC(=O)c3cccc(N(C)C)c3)nc2n1, which “activity change, negative = inhibition” value is on record?
Answer: inactive: 1.01%

Question: CCC1COCCS(=O)(=O)N1Cc1ccccc1F (stereo unspecified) was tested. Which Potency did it give?
Answer: inconclusive: 89.1 µM [inhibitor, single point]

Question: How did the Potency turn out when O=C(Nc1cc(S(=O)(=O)Nc2ccc(Cl)cc2)ccc1N1CCCCC1)c1ccc(F)cc1 was run?
Answer: inconclusive: 70.8 µM [inhibitor, single point]

Question: Which Potency does the source give for CC1=NOC(=O)/C1=C\c1ccc(-c2cccc(Cl)c2)o1 here?
Answer: inconclusive: 28.2 µM [inhibitor, full curve]

Question: For Cc1nc(N2CCCCC2)c2c(C)c(C(=O)Nc3ccc4c(c3)OCCO4)sc2n1, which “activity change, negative = inhibition” value is on record?
Answer: inactive: 7.78%

Question: Which Potency does the source give for COc1ccc2nc(N(CCN(C)C)C(=O)c3ccc4ccccc4c3)sc2c1 here?
Answer: inconclusive: 0.708 µM [inhibitor, full curve, poor fit]

Question: Cc1ccc(S(=O)(=O)N2[C@@H](c3ccc(F)cc3)C(C(=O)O)=CC[C@H]2c2ccc(C(C)C)cc2)cc1 was tested. Which “activity change, negative = inhibition” value did it give?
Answer: inactive: -22.4%

Question: COCCCNC(=O)C1CCN(Cc2cc3ccccc3n2Cc2cccc(Cl)c2)CC1 was tested. Which Potency did it give?
Answer: inconclusive: 70.8 µM [inhibitor, partial curve]

Question: How did the Potency turn out when Brc1ccc(NC(c2ccccc2)c2ccncc2)cc1 (stereo unspecified) was run?
Answer: active: 56.2 µM

Question: Which Potency does the source give for COc1ccc(N2CCN(C(=O)c3ccc4c(c3)CCN4S(=O)(=O)c3ccccc3)CC2)cc1 here?
Answer: inconclusive: 12.6 µM [inhibitor, full curve]

Question: COc1ccccc1-c1sc2cc3c(cc2c1-c1ccc(OCCN2CCOCC2)cc1)OCO3 was tested. Which Potency did it give?
Answer: active: 50.1 µM

Question: With O=C(N/N=C/c1ccoc1)c1cc(O)cc(O)c1 as the compound, how does the Potency read?
Answer: active: 25.1 µM

Question: CCCc1nc2c(c(=O)c3ccccc3n2C)c(=O)n1C1CCCCCC1 was tested. Which Potency did it give?
Answer: inconclusive: 63.1 µM [inhibitor, single point]

Question: Which “activity change, negative = inhibition” value does the source give for CN1CCC(CC(C(=O)N2CCCC2)(c2ccccc2)c2ccccc2)C1 (stereo unspecified) here?
Answer: inactive: -5.52%

Question: How did the Potency turn out when O=C(NCC(=O)N(CCN1CCOCC1)C(C(=O)NC1CCCC1)c1cccs1)c1ccco1 (stereo unspecified) was run?
Answer: inconclusive: 79.4 µM [inhibitor, partial curve]

Question: With CCOC(=O)c1ccc(Nc2ncccc2[N+](=O)[O-])cc1 as the compound, how does the Potency read?
Answer: inconclusive: 11.2 µM [inhibitor, partial curve]

Question: With CCN(CC)c1ncnc2sc(C(=O)N3CCN(c4ccc(OC)cc4)CC3)c(C)c12 as the compound, how does the Potency read?
Answer: inconclusive: 56.2 µM [inhibitor, partial curve]

Question: How did the Potency turn out when CCOC(=O)CNC(=O)CSc1nnc(-c2ccco2)n1Cc1ccco1 was run?
Answer: active: 28.2 µM

Question: With COc1cc(/C=N/n2c(-c3cc(C)[nH]n3)n[nH]c2=S)cc(OC)c1OC as the compound, how does the Potency read?
Answer: active: 1.41 µM

Question: With CSc1ccc(N2CCN(CCCNC(=O)Nc3ccccc3F)CC2)cc1 as the compound, how does the Potency read?
Answer: inconclusive: 50.1 µM [inhibitor, partial curve]

Question: For Cc1nc(Nc2nc3ccccc3o2)nc(C)c1C, which Potency is on record?
Answer: inconclusive: 25.1 µM [inhibitor, full curve, poor fit]

Question: With Oc1ccccc1/C=N/NC(=S)NC1CC2CC1C1C=CCC21 (stereo unspecified) as the compound, how does the Potency read?
Answer: inconclusive: 44.7 µM [inhibitor, partial curve]

Question: Cc1ccc(C)c(CSc2cn(CC(=O)N3CCCC3)c3ccccc23)c1 was tested. Which “activity change, negative = inhibition” value did it give?
Answer: inactive: -30%

Question: How did the Potency turn out when CC(O)CNCCCOc1ccc(Cl)cc1C(C)(C)C (stereo unspecified) was run?
Answer: active: 0.891 µM

Question: For CN(Cc1ccccc1)c1ccc2cc(S(=O)(=O)N3CCCCC3)ccc2n1, which “activity change, negative = inhibition” value is on record?
Answer: inactive: 21.8%

Question: For CCOc1cc(-c2cc(-c3ccc(C)o3)nc(N)c2C#N)ccc1O, which “activity change, negative = inhibition” value is on record?
Answer: inactive: -11.7%

Question: For O=C1CC(Nc2ccc(N3CCOCC3)cc2)C(=O)N1c1ccccc1 (stereo unspecified), which “activity change, negative = inhibition” value is on record?
Answer: inactive: -19.8%

Question: With Cc1ncc(CO)c(/C=N/NC(=S)Nc2ccc(Cl)c(Cl)c2)c1O as the compound, how does the Potency read?
Answer: inconclusive: 56.2 µM [inhibitor, partial curve]

Question: For CC(C)C[C@H](NC(=O)c1nc[nH]c1C(=O)NC(c1ccccc1)c1ccccc1)C(=O)OC(C)(C)C, which Potency is on record?
Answer: inconclusive: 44.7 µM [inhibitor, partial curve]

Question: Which “activity change, negative = inhibition” value does the source give for CN(C)S(=O)(=O)c1cccc(NC(=O)c2cccc(S(=O)(=O)N3CCCCCC3)c2)c1 here?
Answer: inactive: -20.7%

Question: For CCOC(=O)c1[nH]c2ccccc2c1NC(=O)c1ccc(S(=O)(=O)N(C)C)cc1, which “activity change, negative = inhibition” value is on record?
Answer: inactive: -24.8%

Question: O=C(CSc1nc2ccccc2c(=O)[nH]1)Nc1ccc(N2CCOCC2)c(Cl)c1 was tested. Which “activity change, negative = inhibition” value did it give?
Answer: inactive: -12.3%

Question: COc1cc(C(=S)N2CCOCC2)cc(Br)c1OS(=O)(=O)c1ccccc1 was tested. Which Potency did it give?
Answer: inconclusive: 56.2 µM [inhibitor, partial curve]

Question: For CCN(CC)C(=O)Cn1c(=O)n(-c2ccc(Cl)cc2)c(=O)c2c3c(sc21)CCCCC3, which “activity change, negative = inhibition” value is on record?
Answer: inactive: -9.21%

Question: For CCOC(=O)N1CCC(C(=O)NNC(=O)c2ccc(Cl)cc2Cl)CC1, which “activity change, negative = inhibition” value is on record?
Answer: inactive: -9.03%

Question: Which Potency does the source give for O=[N+]([O-])c1ccc(Sc2cccc[n+]2[O-])c2nonc12 here?
Answer: active: 20 µM

Question: Which Potency does the source give for COc1ccc(C(=O)N2CCN(Cc3ccccc3C(F)(F)F)CC2)cc1 here?
Answer: active: 25.1 µM

Question: COc1ccc2c(c1)C(c1cccs1)=NNC(c1cccnc1)=N2 was tested. Which Potency did it give?
Answer: inconclusive: 50.1 µM [inhibitor, partial curve]

Question: With N#Cc1ccccc1S(=O)(=O)N1CCN(C(=O)C2COc3ccccc3O2)CC1 (stereo unspecified) as the compound, how does the Potency read?
Answer: inconclusive: 15.8 µM [inhibitor, full curve]

Question: O=S1(=O)N=C(Sc2cccc3cccnc23)c2ccccc21 was tested. Which Potency did it give?
Answer: inconclusive: 89.1 µM [inhibitor, partial curve, poor fit]

Question: With COc1cc(/C=C2\SC(=S)N(Nc3ccccc3)C2=O)cc(OC)c1OC as the compound, how does the Potency read?
Answer: inconclusive: 39.8 µM [inhibitor, partial curve]

Question: How did the Potency turn out when O=C(c1cccc(S(=O)(=O)NCc2ccccc2)c1)N1CCN(c2ccc(F)cc2)CC1 was run?
Answer: inconclusive: 22.4 µM [inhibitor, full curve, poor fit]

Question: Which “activity change, negative = inhibition” value does the source give for CCCN(Cc1cccs1)C(=O)Nc1cc(C)cc(C)c1 here?
Answer: inactive: 20.5%

Question: Which Potency does the source give for C/C=C/C=C\C(=O)Nc1cccc(C2=NOC3(C2)C[C@H](C(N)=O)N(C(=O)/C=C/C)C3)c1 (stereo partly specified) here?
Answer: active: 79.4 µM

Reference: PubChem BioAssay AID504339 (National Center for Advancing Translational Sciences (NCATS), 2011)
